Here are results for 90 compounds from publication PMC4336329 (PLoS ONE, 2015).

Among all 310,000 compounds or so, about 2,200 (0.71%) showed an effect of 50% or more. The effect is printed as a negative number. The list shows a part of the results.

The target of this assay is human ether-à-go-go-related gene (hERG) potassium channel (human, UniProt Q12809). Kind of assay: primary screen, population patch clamp on CHO cells stably expressing hERG.
human ether-à-go-go-related gene (hERG) potassium channel, sequence (Q12809 whole entry, looked up): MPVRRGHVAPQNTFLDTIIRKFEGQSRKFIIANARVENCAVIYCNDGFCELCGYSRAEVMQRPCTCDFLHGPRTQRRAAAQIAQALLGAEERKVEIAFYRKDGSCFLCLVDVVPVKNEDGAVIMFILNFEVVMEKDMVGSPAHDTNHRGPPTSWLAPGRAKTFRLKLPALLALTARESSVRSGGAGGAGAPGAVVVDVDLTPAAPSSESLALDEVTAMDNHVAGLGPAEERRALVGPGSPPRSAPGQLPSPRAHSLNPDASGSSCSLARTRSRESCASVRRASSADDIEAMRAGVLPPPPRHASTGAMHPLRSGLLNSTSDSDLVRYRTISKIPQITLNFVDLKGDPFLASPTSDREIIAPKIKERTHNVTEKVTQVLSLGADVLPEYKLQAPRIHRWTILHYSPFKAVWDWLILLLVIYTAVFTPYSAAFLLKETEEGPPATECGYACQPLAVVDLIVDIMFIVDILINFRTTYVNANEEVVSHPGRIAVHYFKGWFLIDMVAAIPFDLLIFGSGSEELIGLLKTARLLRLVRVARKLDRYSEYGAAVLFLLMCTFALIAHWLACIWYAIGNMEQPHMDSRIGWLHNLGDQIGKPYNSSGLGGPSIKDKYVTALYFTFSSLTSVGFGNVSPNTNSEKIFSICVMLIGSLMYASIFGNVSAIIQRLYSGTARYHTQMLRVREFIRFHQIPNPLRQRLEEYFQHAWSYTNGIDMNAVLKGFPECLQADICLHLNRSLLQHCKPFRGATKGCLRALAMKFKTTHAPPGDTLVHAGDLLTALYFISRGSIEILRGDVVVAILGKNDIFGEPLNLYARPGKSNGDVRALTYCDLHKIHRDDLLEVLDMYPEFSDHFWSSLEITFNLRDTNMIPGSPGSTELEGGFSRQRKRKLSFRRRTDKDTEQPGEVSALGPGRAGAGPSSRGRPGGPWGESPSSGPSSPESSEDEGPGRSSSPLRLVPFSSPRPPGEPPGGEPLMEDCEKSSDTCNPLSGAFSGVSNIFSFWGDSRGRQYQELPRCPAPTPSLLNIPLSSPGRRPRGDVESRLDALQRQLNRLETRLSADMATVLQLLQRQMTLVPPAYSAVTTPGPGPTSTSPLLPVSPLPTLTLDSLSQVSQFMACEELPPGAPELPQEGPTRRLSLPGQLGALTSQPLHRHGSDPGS
For `CN(C)c1ccc(Nc2nc(N)c3ccccc3n2)cc1.Cl`, the “hERG current change (%, negative = inhibition) at 1uM” value is recorded as -0.952%. As to `COc1ccccc1NC(=O)C1CCN(C(=O)C2CC(=O)N(c3ccc(C)cc3)C2)CC1` (stereo not drawn), the “hERG current change (%, negative = inhibition) at 1uM” value turned out to be 10.9%. As to `COc1ccc(CC(=O)N2CCC(n3nccc3NC(=O)C3CC3)CC2)cc1`, the “hERG current change (%, negative = inhibition) at 1uM” value stood at 13.3%. In the case of `C(=N\Nc1nc2ccccc2[nH]1)/c1cccc2cccnc12`, the “hERG current change (%, negative = inhibition) at 1uM” value is listed as 7.94%.

For the compound `O=C(NCc1cccnc1)NC1(C(F)(F)F)Oc2ccccc2O1`, the “hERG current change (%, negative = inhibition) at 1uM” value was -5.46%. On to `O=C1CC(=O)CC(c2ccccc2)C1`, for which the “hERG current change (%, negative = inhibition) at 1uM” value worked out at 9.21%.

For the compound `CCN(C(=O)c1cn(C)c(=O)c2ccccc12)c1ccccc1F`, the “hERG current change (%, negative = inhibition) at 1uM” value turned out to be 3.64%.

Turning to `COC(=O)c1ccc(CN2CCN(CC=C(C)C)C(CCO)C2)cc1` (stereo not drawn), the “hERG current change (%, negative = inhibition) at 1uM” value is reported as 2.91%. On to `COc1cccc(N2CCN(c3ccc4nnc(CCC(=O)Nc5ccccc5OC)n4n3)CC2)c1`, for which the “hERG current change (%, negative = inhibition) at 1uM” value is reported as -1.06%. The same measure for `O=C(NCc1cccc(C(F)(F)F)c1)C1CC(c2c(Cl)cccc2Cl)=NO1` (stereo not drawn): 0.493%; for `COc1ccc(CNC(=O)/C=C/C(=O)O)cc1OC`: -5.68%. Turning to `CCOC(=O)CSc1n[nH]c(NC(=O)c2ccccc2)n1`, the “hERG current change (%, negative = inhibition) at 1uM” value was determined as 8.7%. As for `O=C(COC(=O)c1ccccc1Br)NC1CCCC1`, the “hERG current change (%, negative = inhibition) at 1uM” value is 26.6%. In the case of `COc1ccc(-c2nn(CCC#N)cc2C(=O)NCc2ccccc2)cc1[N+](=O)[O-]`, the “hERG current change (%, negative = inhibition) at 1uM” value is recorded as -25%. On to `Cn1c(=O)c([N+](=O)[O-])c(N2CCN(Cc3ccc4c(c3)OCO4)CC2)c2ccccc21`, for which the “hERG current change (%, negative = inhibition) at 1uM” value is 12.7%. The result for `COc1ccc(C(=O)NCCS(=O)(=O)NCC2CCCO2)cc1` (stereo not drawn) reads 16.1%; that for `Cc1cc(NC(=O)CSc2nc(C(C)C)nc3sc4c(c23)CCCC4)no1`, 15.1%; that for `O=C(CCCN1C(=O)c2ccccc2C1=O)N1CCc2ccccc2C1`, -3.63%. In the case of `CCOc1ccccc1N1CCN(C(=O)CCCN2C(=O)c3cccc4cccc(c34)C2=O)CC1`, the “hERG current change (%, negative = inhibition) at 1uM” value was determined as 2.15%. Consider `O=C1c2ccccc2NC2(CCCCC2)N1N=C1CCCCC1`, for which the “hERG current change (%, negative = inhibition) at 1uM” value is recorded as 13.6%. The result for `COc1ccc(S(=O)(=O)N2CCC(C(=O)NC3CC3)CC2)cc1OC` reads -9.17%; that for `CCC(C)C(NC(=O)[C@@H](NC(=O)c1ccccc1F)C(C)C)C(=O)OC` (stereo partly drawn), 10.6%. For `N#Cc1c(/N=C/c2ccccc2)oc(-c2ccccc2)c1-c1ccccc1`, the “hERG current change (%, negative = inhibition) at 1uM” value is 16.5%. Take `Cn1c(SCC(=O)Nc2ccc(Cl)cn2)nnc1C1CC1`: the “hERG current change (%, negative = inhibition) at 1uM” value is given as 6.99%. `CCOC(=O)c1ccc(Nc2ncnc3ccccc23)cc1.Cl`: the “hERG current change (%, negative = inhibition) at 1uM” value is listed as 8.61%.

Take `Cc1ccc(CN2CCN(c3ccccc3Cl)CC2)o1`: the “hERG current change (%, negative = inhibition) at 1uM” value came out at 3.56%. Regarding `CCc1ccc(NC(=O)NCC2CCN(Cc3cccc(Cl)c3)CC2)cc1`, the “hERG current change (%, negative = inhibition) at 1uM” value is listed as -36.7%.

Consider `CCOCC(=O)NC1CCSC1=O` (stereo not drawn), for which the “hERG current change (%, negative = inhibition) at 1uM” value is recorded as 22.7%. `O=C(c1ccc(CNS(=O)(=O)c2cccc(C(F)(F)F)c2)cc1)N1CCOCC1`: the “hERG current change (%, negative = inhibition) at 1uM” value is recorded as 0.595%. The same measure for `Cc1occc1C(=O)NNC(=O)c1ccc(S(=O)(=O)N(C)C)cc1`: 6.96%; for `Cc1ccc(-c2nc3cccnc3o2)cc1NC(=O)COc1ccc(Cl)cc1C`: 13.4%. On to `Cn1c(=O)n(C)c2cc(NC(=O)Cc3ccccc3[N+](=O)[O-])ccc21`, for which the “hERG current change (%, negative = inhibition) at 1uM” value was 11.8%. `O=C(O)C(=O)O.O=C(c1cccs1)N1CCN(CCCc2ccccc2)CC1`: the “hERG current change (%, negative = inhibition) at 1uM” value was -47.1%. Turning to `CCN1C(=O)c2ccccc2S(=O)c2ccc(C(=O)NCc3ccccn3)cc21` (stereo not drawn), the “hERG current change (%, negative = inhibition) at 1uM” value was found to be 8.38%. Turning to `O=C(NC(=S)Nc1ccc2c(c1)OCCO2)c1cccc(Br)c1`, the “hERG current change (%, negative = inhibition) at 1uM” value is reported as 3.4%. Turning to `COc1ccc(/C=C/c2c([N+](=O)[O-])c(=O)n(C)c(=O)n2C)c(OC)c1OC`, the “hERG current change (%, negative = inhibition) at 1uM” value is given as 5.83%. `O=C(/C=C/Nc1cccc(F)c1)c1ccco1`: the “hERG current change (%, negative = inhibition) at 1uM” value is recorded as 9.64%. On to `Cc1nc(N2CCCCC2)sc1C(=O)c1cccc([N+](=O)[O-])c1`, for which the “hERG current change (%, negative = inhibition) at 1uM” value stood at 7.77%.

As for `Clc1ccccc1-c1nc(-c2ccccc2)n[nH]1`, the “hERG current change (%, negative = inhibition) at 1uM” value is reported as -0.0945%. The result for `Cc1ccc(/C=C2/N=C(c3ccccc3)NNC2=O)cc1` reads 3.02%; that for `CCOC(=O)N1CCN(C(=O)c2cccc(S(=O)(=O)Nc3ccccc3Cl)c2)CC1`, 30.7%; that for `CC(=O)NS(=O)(=O)c1ccc(NC(=O)CSc2ccc(Cl)cc2)cc1`, 4.63%. As for `CCCn1cc(C(=O)OCC)c(=O)c2cc(F)c(F)cc21`, the “hERG current change (%, negative = inhibition) at 1uM” value turned out to be 11.4%.

Consider `CCCCc1n[nH]c2c1/C(=N/OCC)CC(C)(C)C2`, for which the “hERG current change (%, negative = inhibition) at 1uM” value is given as 16.1%. Consider `Cc1ccccc1N1CC(C(=O)NC2CCCC2)CC1=O` (stereo not drawn), for which the “hERG current change (%, negative = inhibition) at 1uM” value is 13%. For `Cc1cccc(-c2nnc(NC(=O)c3ccc(N4C(=O)CCC4=O)cc3)s2)c1`, the “hERG current change (%, negative = inhibition) at 1uM” value is given as 14.6%. The result for `CCOC(=O)C1CCCN(C(=O)c2ccc3oc(CCc4ccccc4)nc3c2)C1` (stereo not drawn) reads 8.66%. The result for `COc1ccccc1-c1nc(C(F)(F)F)c(OC)o1` reads -1.13%.

`c1ccc(-n2ncc3c2ncn2cnnc32)cc1`: the “hERG current change (%, negative = inhibition) at 1uM” value is recorded as 13.1%. Regarding `c1ccc(-c2nnnc3ccccc23)cc1`, the “hERG current change (%, negative = inhibition) at 1uM” value was found to be 13.1%.

`O=C1N(Cc2cccc(Cl)c2)C[C@@H]2C[C@@H](c3ccsc3)N3CCC[C@@]123`: the “hERG current change (%, negative = inhibition) at 1uM” value is -6.04%. The same measure for `C=CC1=C(C(=O)O)N2C(=O)[C@@H](NC(=O)/C(=N/OCC(=O)O)c3csc(N)n3)[C@H]2SC1.O`: 18.1%; for `COC(=O)c1cc(=O)n(Cc2ccco2)c(=Nc2ccc(F)c(Cl)c2)s1`: -6.63%. In the case of `CCNC(=O)Cc1ccc(Br)cc1`, the “hERG current change (%, negative = inhibition) at 1uM” value is recorded as 10.7%. The result for `OCCNCC(O)CN1c2ccccc2Sc2ccccc21` (stereo not drawn) reads 7.67%; that for `CCOC(=O)CNC(=O)CSc1nnc(-c2ccco2)n1Cc1ccco1`, 6.74%; that for `Cc1ccc(N2CCN(C(=S)c3ccc(-c4ccccc4[N+](=O)[O-])o3)CC2)cc1`, 14.7%. As to `CCC1=C(OC(=O)N(CC)CC)N2C(=O)OC(=NCCc3c[nH]c4ccccc34)[C@]2(Cc2ccccc2)[C@H]2C1=CC[C@H]1C(=O)N(c3ccccc3)C(=O)[C@H]12`, the “hERG current change (%, negative = inhibition) at 1uM” value came to 9.01%. The same measure for `NC(=O)c1cccnc1OCC(F)(F)F`: 1.58%; for `Cc1nc(NC(=O)COC(=O)CCS(=O)(=O)c2ccccc2Cl)c(Cl)cc1Cl`: 11.3%. Consider `CC(NC(=O)c1ccc2c(c1)OCO2)c1cccc(C(F)(F)F)c1` (stereo not drawn), for which the “hERG current change (%, negative = inhibition) at 1uM” value came to 4.04%. Regarding `CC(Sc1nnc(-c2cc3ccccc3o2)n1-c1ccccc1)C(=O)O` (stereo not drawn), the “hERG current change (%, negative = inhibition) at 1uM” value came out at 13.1%. The result for `Cc1ccc(NC(=O)c2ccc3nsnc3c2)c(Cl)c1` reads 9.66%; that for `CCOc1ccc(NC(=O)CSc2nc3ccccc3nc2N2CCOCC2)cc1`, -3.83%; that for `Nc1c(Cl)cc(Cl)cc1C(=O)OCC(=O)N1CCCC1`, -10.3%. As for `CC1CN(CCc2ccccc2)c2nc3c(c(=O)n(C)c(=O)n3C)n2C1` (stereo not drawn), the “hERG current change (%, negative = inhibition) at 1uM” value was -7.41%. Take `CN(C1CCS(=O)(=O)C1)S(=O)(=O)c1ccc2ccccc2c1` (stereo not drawn): the “hERG current change (%, negative = inhibition) at 1uM” value was -6.73%. `COc1ccc(CN2CCNC(=O)C2CC(=O)NC2CCCCCCC2)cc1OC` (stereo not drawn): the “hERG current change (%, negative = inhibition) at 1uM” value was 12.3%. In the case of `CCN(CC)c1ccc(NC(=O)Nc2ccccc2C(F)(F)F)cc1`, the “hERG current change (%, negative = inhibition) at 1uM” value stood at 10.8%. The result for `COCc1ccc(CN2CCCC(CO)(Cc3ccccc3)C2)o1` (stereo not drawn) reads 9.3%; that for `COC(=O)[C@H](CC(C)C)NC(=O)Nc1ccc2c(c1)OCCO2`, 6.42%; that for `CCOC(=O)c1[nH]c(C)c(C(=O)N(C)Cc2ccccc2)c1C`, 3.82%.

`COc1cccc(NC(=S)N(Cc2ccc(C(=O)O)cc2)Cc2ccc(OC)c(OC)c2)c1`: the “hERG current change (%, negative = inhibition) at 1uM” value turned out to be 9.03%.

Regarding `CC1CCCN(c2nc(NCc3ccco3)nc(N)c2[N+](=O)[O-])C1` (stereo not drawn), the “hERG current change (%, negative = inhibition) at 1uM” value stood at 3.98%. Consider `CCOc1nc2ccccc2cc1/C=C/C(=O)O`, for which the “hERG current change (%, negative = inhibition) at 1uM” value is 10.5%.

With `CCC(NC(=O)CCc1ccccc1)c1ccccc1` (stereo not drawn), the “hERG current change (%, negative = inhibition) at 1uM” value is recorded as 2.38%. Take `CC(c1nnnn1C1CCCCC1)N(Cc1ccccc1)Cc1cccnc1` (stereo not drawn): the “hERG current change (%, negative = inhibition) at 1uM” value is reported as -7.88%. As to `O=C(Nc1ccc(N2CCCC2)cc1)c1cc([N+](=O)[O-])ccc1N1CCOCC1`, the “hERG current change (%, negative = inhibition) at 1uM” value is 6.47%. With `CCOC(=S)SCC(=O)Nc1ncc(C)s1`, the “hERG current change (%, negative = inhibition) at 1uM” value is 15.1%. Regarding `COc1ccccc1C(=O)N(C1=NC(C)CS1)c1ccc(Cl)cc1` (stereo not drawn), the “hERG current change (%, negative = inhibition) at 1uM” value is 8.39%. For `COc1c2occc2c(OC)c2c(=O)cc(C)oc12`, the “hERG current change (%, negative = inhibition) at 1uM” value is reported as -3.93%. Take `O=S1(=O)CCOCCN1Cc1ccccc1`: the “hERG current change (%, negative = inhibition) at 1uM” value is 10.2%. As to `CCN1CCSc2ccc(C(=O)NCc3cccc(F)c3)cc21`, the “hERG current change (%, negative = inhibition) at 1uM” value was determined as 15.9%. The result for `CCn1c(CSc2n[nH]c(N)n2)nc2cc(C(=O)O)ccc21` reads 11.3%; that for `O=C(c1cc2ccccc2oc1=O)N(Cc1cccs1)Cc1ccccc1Cl`, 2.42%; that for `CCCCOC(=O)Cn1c(=N)n(CCC)c2ccccc21.Cl`, -4.92%. For the compound `CCOC(=O)C1CCN(C2CC(=O)N(c3ccc(OCC)cc3)C2=O)CC1` (stereo not drawn), the “hERG current change (%, negative = inhibition) at 1uM” value was 2.22%. The result for `COc1cc(NC(=O)c2cc(-c3ccco3)on2)cc(OC)c1OC` reads 6.43%; that for `COc1ccc(CC2(C)OC(c3ccc(C)c([N+](=O)[O-])c3)=NN2C(C)=O)cc1` (stereo not drawn), 12.8%. Turning to `CC1(C)CC(=O)C2=C(C1)OC(N)=C([N+](=O)[O-])C2c1cccs1` (stereo not drawn), the “hERG current change (%, negative = inhibition) at 1uM” value stood at 11.4%.
